Assay results reported in PubChem BioAssay AID1347055 (National Center for Advancing Translational Sciences (NCATS), 2019).
Where “and” joins values, the source holds several entries; their conditions need not be identical. Equal values may be shown once. Out of some 54,000 compounds screened, about 120 (0.22%) were called active. This list was built around the results that the source calls inconclusive (neither active nor inactive); the mix of calls is not that of the screen. Calls follow the shape of the dose curve; as a rule, active = well fitted inhibition curve with a large enough effect; inconclusive = small, poorly fitted or top-dose-only effect, or effect the other way; inactive = flat fitted curve, though single readings scatter. No potency is given beside an inconclusive call; the fits are too rough.

Biological target: Fumarate hydratase, mitochondrial (Homo sapiens) (UniProt P07954)
Assay: Identification of activators of human fumarate hydratase by quantitative high-throughput screening; also: the screen sought activators but most active calls are inhibition curves; nearly all actives have a fitted effect of over 45% in size
Settings: FH coupled MDH/diaphorase resazurin fluorescence, 15 min; activity change, negative = inhibition: at 79.9 µM (top of the series)
% is scaled to controls: 0 for no effect and ±100 for the full control effect; potency is read from the fitted curve at half-maximal effect; tags tell the direction and shape of the fitted curve.

Chain of UniProt P07954 (P07954 whole entry, looked up): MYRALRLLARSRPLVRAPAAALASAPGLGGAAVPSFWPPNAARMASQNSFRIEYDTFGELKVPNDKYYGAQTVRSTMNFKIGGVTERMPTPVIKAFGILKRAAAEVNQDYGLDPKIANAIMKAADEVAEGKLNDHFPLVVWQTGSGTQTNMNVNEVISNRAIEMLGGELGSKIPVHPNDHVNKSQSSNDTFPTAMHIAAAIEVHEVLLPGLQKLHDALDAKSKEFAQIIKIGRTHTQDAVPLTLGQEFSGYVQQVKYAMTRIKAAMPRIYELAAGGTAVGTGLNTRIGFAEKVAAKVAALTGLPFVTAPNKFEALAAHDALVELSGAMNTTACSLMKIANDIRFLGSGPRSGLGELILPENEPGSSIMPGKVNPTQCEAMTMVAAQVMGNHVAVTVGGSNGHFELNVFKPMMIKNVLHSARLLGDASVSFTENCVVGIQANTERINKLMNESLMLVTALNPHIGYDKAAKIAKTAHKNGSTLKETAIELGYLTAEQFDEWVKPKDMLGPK

Question: With `CC1CCN(S(=O)(=O)c2ccc3nc(Nc4ccc(C#N)cc4)ccc3c2)CC1` as the compound, how does the Potency read?
Answer: inconclusive [inhibitor, single point]

Question: For `O=C(O)c1cc([N+](=O)[O-])ccc1NCCCc1ccccc1`, which Potency is on record?
Answer: inconclusive [inhibitor, single point]

Question: Which activity change, negative = inhibition does the source give for `COc1ccccc1CNS(=O)(=O)c1ccc(F)c(C(=O)Nc2cc(Cl)ccc2OC)c1` here?
Answer: inconclusive: -32% [inhibitor]

Question: Which Potency does the source give for `CCc1ccc(C2c3c(-c4cc(C)ccc4O)n[nH]c3C(=O)N2Cc2cccnc2)cc1` (stereo not given) here?
Answer: inconclusive [inhibitor, partial curve, poor fit]

Question: With `Cc1nn(CCC(=O)N2CCN(c3ccccc3)CC2)c(C)c1S(=O)(=O)N1CCCC1` as the compound, how does the Potency read?
Answer: inconclusive [activator, partial curve, poor fit]

Question: `CC(=O)OC1C(O)CC2(C)C(CCC(C)C23Cc2c(O)cc(CO)c(C=O)c2O3)C1(C)C` (stereo not given) was tested. Which “activity change, negative = inhibition” value did it give?
Answer: inactive: -0.542% [at 53.3 µM]

Question: `CCOc1ccc(S(=O)(=O)N(C(=O)c2ccncc2)c2ccc3oc(C)c(C(=O)OC)c3c2)cc1` was tested. Which Potency did it give?
Answer: inconclusive [inhibitor, partial curve, poor fit]

Question: `COC(=O)c1ccc(NC(=O)CSc2n[nH]c(CC(C)C)n2)cc1` was tested. Which Potency did it give?
Answer: inconclusive [inhibitor, single point]

Question: How did the Potency turn out when `Cc1cccc(C)c1NC(=O)CSCc1cnn(-c2ccccc2)c1-n1cccc1` was run?
Answer: inconclusive [inhibitor, partial curve, poor fit]

Question: With `CC[C@@H]1C(=O)N(C)c2cnc(Nc3ccc(C(=O)NC4CCC(N5CCN(CC6CC6)CC5)CC4)cc3OC)nc2N1C(C)C` (stereo not given in full) as the compound, how does the Potency read?
Answer: inactive

Question: For `CN(Cc1ccc(C(C)(C)C)cc1)Cc1cccc2ccccc12`, which “activity change, negative = inhibition” value is on record?
Answer: inactive: 1.14% [at 53.3 µM]

Question: How did the Potency turn out when `CN(C)CCOc1cc(-c2cn[nH]c2)ccc1NC(=O)C1COc2ccccc2O1` (stereo not given) was run?
Answer: inconclusive [activator, single point]

Question: For `CC(=O)c1ccc(NC(=O)C2=CC(c3ccc(C)cc3)=NS(=O)(=O)N2C)cc1`, which Potency is on record?
Answer: inconclusive [inhibitor, partial curve, poor fit]

Question: With `O=C1Nc2ccc(I)cc2/C1=C/c1cc(Br)c(O)c(Br)c1` as the compound, how does the Potency read?
Answer: active: 10 µM and active: 28.2 µM

Question: How did the Potency turn out when `Cc1ccc(Cl)cc1N1CCN(C(=O)c2cc(S(=O)(=O)N3CCCC3)c[nH]2)CC1` was run?
Answer: inconclusive [inhibitor, single point]

Question: Which “activity change, negative = inhibition” value does the source give for `Cc1ccc2c(=O)cc(C(=O)Nc3ccc(S(=O)(=O)N4CCCCCC4)cc3)oc2c1` here?
Answer: inactive: -1.68%

Question: With `CC(C)c1ccc(NC(=O)CSC2=Nc3ccccc3C3=NC(CCC(=O)NCc4ccco4)C(=O)N23)cc1` (stereo not given) as the compound, how does the “activity change, negative = inhibition” value read?
Answer: inactive: -10.6%

Question: For `COc1cccc(Nc2nc3ccccc3c3nncn23)c1`, which Potency is on record?
Answer: inconclusive [inhibitor, single point]

Question: How did the Potency turn out when `CC1CCN(S(=O)(=O)c2ccc3nc(NCc4ccccc4)ccc3c2)CC1` was run?
Answer: inconclusive [inhibitor, partial curve, poor fit]

Question: `Cc1ccc(Cl)cc1N1CCN(C(=O)c2ccc(CS(=O)c3ccccc3)o2)CC1` (stereo not given) was tested. Which Potency did it give?
Answer: inconclusive [inhibitor, partial curve]

Question: For `Cc1cc(C)cc(Nc2cc(C(=O)NCCCN(C)C3CCCCC3)c3ccccc3n2)c1`, which “activity change, negative = inhibition” value is on record?
Answer: inactive: -9.85%

Question: How did the Potency turn out when `COc1ccc(NS(=O)(=O)c2ccc(-c3cnc(C4CC4)o3)cc2)cc1Cl` was run?
Answer: inconclusive [inhibitor, partial curve, poor fit]

Question: How did the Potency turn out when `CCCn1cnc2cc(NCc3ccccc3OCC)ccc21` was run?
Answer: inconclusive [inhibitor, partial curve]

Question: For `CC(=O)c1ccc(NC(=O)CSc2cn(CC(=O)N(C(C)C)C(C)C)c3ccccc23)cc1`, which Potency is on record?
Answer: inconclusive [inhibitor, single point]

Question: For `CCCOc1cccc(C2c3c(-c4ccccc4O)n[nH]c3C(=O)N2Cc2ccco2)c1` (stereo not given), which Potency is on record?
Answer: inconclusive [inhibitor, partial curve]

Question: For `CCS(=O)(=O)N1CCc2cc(C(=O)Nc3cccc(C(C)=O)c3)ccc21`, which “activity change, negative = inhibition” value is on record?
Answer: inactive: -6.98%

Question: How did the Potency turn out when `Cc1ccccc1OCc1nc2ccccc2n1Cc1ccccc1Cl` was run?
Answer: inconclusive [inhibitor, single point]

Question: Which “activity change, negative = inhibition” value does the source give for `CC1CCN(C(=O)CC#N)CC1N(C)c1ncnc2[nH]ccc12` (stereo not given) here?
Answer: inactive: 0.0537%

Question: How did the Potency turn out when `CCOC(=O)C1=C(C)N=C2SCCC(=O)N2C1c1ccc(OCc2ccccc2)c(OC)c1` (stereo not given) was run?
Answer: inconclusive [inhibitor, partial curve, poor fit]

Question: `CC(=O)c1c(C)oc2c1cc(NS(=O)(=O)c1c(C)cc(C)cc1C)c1ccccc12` was tested. Which Potency did it give?
Answer: inconclusive [inhibitor, partial curve]

Question: How did the Potency turn out when `COc1ccccc1Nc1c2c(nc3ccc(NC(=O)c4ccccc4F)cc13)CCCC2` was run?
Answer: inconclusive [inhibitor, partial curve, poor fit]

Question: How did the Potency turn out when `CCN(CC)CCCNC(=O)c1cn(CC(C)C)c(=O)c2c1c1ccccc1n2C` was run?
Answer: inconclusive [inhibitor, single point]

Question: Which “activity change, negative = inhibition” value does the source give for `Cc1cccc(CCn2c(=O)c3ccccc3n(CC(=O)Nc3ccccc3F)c2=O)c1` here?
Answer: inactive: 3.05%

Question: How did the Potency turn out when `Cc1ccn2c(=O)cc(CSc3nnc(C)s3)nc2c1` was run?
Answer: inconclusive [inhibitor, partial curve]

Question: `Cc1ccc(C)c(N2CCN(CCCNC(=O)c3cnn(-c4ccccc4)c3C3CCN(C(=O)OC(C)(C)C)CC3)CC2)c1` was tested. Which Potency did it give?
Answer: inconclusive [inhibitor, single point]

Question: How did the Potency turn out when `Cc1ccc(CNC(=O)c2ccc(Cn3c(SCc4ccc(F)cc4)nc4cccnc43)cc2)o1` was run?
Answer: inconclusive [inhibitor, single point]

Question: For `COc1ccc(N(CC(=O)N2CCc3ccccc3C2)S(=O)(=O)c2ccccc2)cc1`, which Potency is on record?
Answer: inconclusive [inhibitor, single point]

Question: `COc1cc2ncnc(Nc3cccc(I)c3)c2cc1OC` was tested. Which Potency did it give?
Answer: inactive

Question: With `CCc1ccc(OC(=O)CSc2nnc(-c3ccc(OC)c(OC)c3)o2)cc1` as the compound, how does the Potency read?
Answer: inconclusive [inhibitor, partial curve]

Question: Which Potency does the source give for `CCNC(=O)c1ccc2c(c1)sc1nc(-c3cccc(OC)c3)cn12` here?
Answer: inconclusive [inhibitor, partial curve, poor fit]
